From article PMC4336329 (PLoS ONE, 2015)
The campaign covered roughly 310,000 compounds. About 14,000 (4.5%) showed an effect of 50% or more. The effect is printed as a negative number. The list shows a part of the results.

What follows are compounds tested against human ether-à-go-go-related gene (hERG) potassium channel (human, UniProt Q12809) (assay: primary screen, population patch clamp on CHO cells stably expressing hERG).
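Further: peak tail current of the secondary pulse compared with the same well before compound.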

human ether-à-go-go-related gene (hERG) potassium channel, sequence (Q12809 whole entry, looked up): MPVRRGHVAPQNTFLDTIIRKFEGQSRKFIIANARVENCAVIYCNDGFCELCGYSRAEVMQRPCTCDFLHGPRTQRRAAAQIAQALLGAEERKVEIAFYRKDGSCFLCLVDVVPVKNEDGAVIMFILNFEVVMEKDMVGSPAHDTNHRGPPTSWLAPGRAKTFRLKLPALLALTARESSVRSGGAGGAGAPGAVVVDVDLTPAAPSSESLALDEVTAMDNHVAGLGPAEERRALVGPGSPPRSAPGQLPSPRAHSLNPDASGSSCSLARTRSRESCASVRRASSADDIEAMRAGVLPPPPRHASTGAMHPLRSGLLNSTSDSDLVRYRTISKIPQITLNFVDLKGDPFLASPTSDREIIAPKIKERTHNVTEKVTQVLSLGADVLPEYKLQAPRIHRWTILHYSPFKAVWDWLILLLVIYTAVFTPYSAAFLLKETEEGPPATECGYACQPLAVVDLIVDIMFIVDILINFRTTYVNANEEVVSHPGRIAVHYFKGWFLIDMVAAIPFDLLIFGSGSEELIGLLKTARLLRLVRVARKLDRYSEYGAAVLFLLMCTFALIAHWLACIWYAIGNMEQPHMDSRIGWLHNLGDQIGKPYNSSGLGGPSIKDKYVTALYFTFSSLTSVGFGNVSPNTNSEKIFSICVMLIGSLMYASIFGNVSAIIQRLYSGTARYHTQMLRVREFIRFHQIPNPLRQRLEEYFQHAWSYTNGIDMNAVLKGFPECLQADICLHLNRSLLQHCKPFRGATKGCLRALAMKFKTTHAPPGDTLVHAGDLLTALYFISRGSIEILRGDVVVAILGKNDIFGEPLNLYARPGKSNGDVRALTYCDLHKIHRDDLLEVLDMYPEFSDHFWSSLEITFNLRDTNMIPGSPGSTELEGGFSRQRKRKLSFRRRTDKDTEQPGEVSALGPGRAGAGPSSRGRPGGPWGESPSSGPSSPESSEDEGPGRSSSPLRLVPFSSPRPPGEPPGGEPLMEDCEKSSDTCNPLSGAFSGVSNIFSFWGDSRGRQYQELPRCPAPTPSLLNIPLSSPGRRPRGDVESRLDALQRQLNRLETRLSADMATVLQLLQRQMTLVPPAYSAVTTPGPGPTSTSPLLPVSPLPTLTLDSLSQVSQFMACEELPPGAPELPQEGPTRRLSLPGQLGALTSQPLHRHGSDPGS

Compound	hERG current change (%, negative = inhibition) at 10uM
Cc1ccc2cc(C(c3nnnn3C3CCCC3)N3CCN(c4ccccc4)CC3)c(=O)[nH]c2c1 (stereo not drawn)	-26.1%
O=C(C/C=N\OCc1ccc([N+](=O)[O-])cc1)Nc1ccc(Br)cc1	15.5%
COc1cc(-c2nc3cnccn3c2Nc2ccc(C)cc2)ccc1O	-13.8%
Cn1c(SCC(=O)Nc2ccccc2)nc2ccccc2c1=O	5.89%
CCCCOc1ccc(CSC(=N)N)cc1Cl.Cl	-21.9%
Cc1cc(OCC(=O)N(C)Cc2ccccc2)ccc1Cl	-10.4%
O=c1[nH]c(COc2ccc(Br)cc2Cl)nc2ccccc12	9.57%
COC(=O)Nc1ccc(N2CCOCC2)c(S(=O)(=O)N2CCOCC2)c1	-5.26%
COC(=O)c1c(-c2ccc(OC)cc2)sc2cc3c(cc12)OCO3	8.58%
O=C(OCn1nnc2ccccc2c1=O)c1ccc(S(=O)(=O)N2CCOCC2)cc1	8.81%
CCCNC(=O)c1ccc(COc2ccc(C(C)(C)C)cc2)o1	-1.91%
COc1cccc2sc(Nc3nc(C)c(C(C)=O)s3)nc12	-4.11%
CCOc1ccc(NC(=O)c2ccco2)cc1S(=O)(=O)N1CCCC1	-23%
C/C(=N\NC(=O)c1cccc(S(=O)(=O)N2CCCCC2)c1)c1ccc(C)o1	-7.17%
COc1ccc(C(=O)CCC(=O)NCCc2c[nH]c3ccccc23)cc1OC	21.2%
COc1ccc(N2CCN(C(=O)c3ccc(C)c(NC(=O)C4=C(C)OCCS4)c3)CC2)cc1	-21.4%
COc1ccccc1C(=O)N(Cc1ccc(Cl)cc1)C1CCS(=O)(=O)C1 (stereo not drawn)	-38%
CS(=O)(=O)c1ccc2nc(NC(=O)C3CC3)sc2c1	10.4%
Cc1cc(C)c(OCCCCn2cnc3ccccc3c2=O)c(C)c1	8.39%
CC(C)(C)n1nc2c(c1NC(=O)c1ccco1)CS(=O)C2 (stereo not drawn)	19.6%
COc1ccc(S(=O)(=O)N(C)CC(=O)N2CCCC2)cc1	16.5%
Cc1cc(C)cc(N(CC(=O)NCCSCc2ccccc2)S(C)(=O)=O)c1	-6.49%

Compound	hERG current change (%, negative = inhibition) at 10uM
COc1ccc(C(=O)NCc2cc(C(C)C)no2)cc1OC1CCN(C(C)C)CC1	-42.7%
CCCCn1c(-c2ccsc2)nc2c1c(=O)[nH]c(=O)n2CCC	-16.1%
CCOC(=O)N1CCN(C(=S)Nc2cccc(C)c2C)CC1	16.8%
C/C(=N\NC(=O)c1nnn(-c2nonc2N)c1CSc1ccccc1)c1ccc2c(c1)OCO2	17.5%
Cc1ccccc1CSc1nnc(C)c(=O)[nH]1	8.22%
CCOC(=O)C(CCSC)NC(=O)CN.Cl (stereo not drawn)	-6.89%
CC(=O)Nc1cc2nc(C)n(Cc3ccccc3[N+](=O)[O-])c2nc1C	17.4%
OC(CN1CCN(c2ccccc2)CC1)Cn1c2ccccc2c2ccccc21 (stereo not drawn)	9.1%
CC1=NN(C(=O)COc2ccccc2)C(O)(c2ccccc2)C1 (stereo not drawn)	-8.49%
COc1ccc(C2C(C(=O)c3ccc(C)o3)=C(O)C(=O)N2c2cc(C)on2)cc1OC (stereo not drawn)	6.89%
O=C(C1CC(=O)N(c2ccc3c(c2)OCCO3)C1)N1CCN(c2ccccc2)CC1 (stereo not drawn)	-8.44%
O=C1CC(c2ccc(F)cc2)C2=C(CCCC2=O)N1 (stereo not drawn)	6.3%
C/C(=N\NC(=O)c1cccc(F)c1)c1cccc(NC(=O)c2ccc(F)cc2)c1	13%
CCS(=O)(=O)N1CCN(S(=O)(=O)c2ccccc2[N+](=O)[O-])CC1	2.28%
COc1ccccc1N1C(=O)[C@@H]2[C@H](C1=O)[C@H](C(=O)c1ccc(OC(C)=O)cc1)N1N=CC=C[C@@H]21	4.33%
O=C(NCCS(=O)(=O)NCc1ccc2c(c1)OCO2)c1ccccc1	-20.2%
CCOC(=O)N1CCN(C(=O)CC(C(=O)N2CCc3ccccc32)n2ccnc2)CC1 (stereo not drawn)	-30.2%
CC1CC1c1ccc(/C=C(\C#N)C(=O)Nc2cccc(Cl)c2Cl)o1 (stereo not drawn)	-3.19%
O=C1CN(C(=O)c2ccc(F)cc2)c2ccccc2N1	-4.95%
C/C(=N/NC(=O)CNC(=O)c1ccncc1)c1ccc(Cl)cc1	-9.07%
CCC(=O)Nc1ccc(C(=O)Nc2ccc(Br)cc2F)cc1	24.9%
COc1ccc(C(=O)NC(=S)NCc2ccco2)cc1Br	13.4%

Compound	hERG current change (%, negative = inhibition) at 10uM
Cc1ccc(S(=O)(=O)N2CCOCC2)cc1NC(=O)CN(C)C1CCS(=O)(=O)C1 (stereo not drawn)	16.9%
CCN1CCc2c(sc(NC(=O)c3ccc(S(=O)(=O)N4CCOCC4)cc3)c2C(N)=O)C1	-21.9%
NNc1nc2c(F)cc(F)cc2s1	12.9%
COc1cc(C(=O)NCC(=O)OCC(=O)c2cccc3ccccc23)cc(OC)c1OC	5.88%
CCOC(=O)C[C@H]1c2cc(F)ccc2S(=O)(=O)N1c1ccccc1	13.9%
CCCc1[nH]nc2c1C(Cc1ccccc1)C(C#N)=C(N)O2 (stereo not drawn)	0.432%
CCOC(=O)C(CC)Sc1nc(N)c(NC(=O)c2ccc(OC)c(OC)c2)c(=O)[nH]1 (stereo not drawn)	-1.07%
COc1ccc(C(C)(C)C)cc1NC(=O)COC(=O)C(C)C	7.26%
Cc1csc(NC(=O)CSc2nnc(-c3cccnc3)o2)n1	9.7%
COc1ccc(N2CCN(C(=O)NC3CC(=O)N(c4ccc(OC)cc4)C3)CC2)cc1 (stereo not drawn)	-35.9%
NS(=O)(=O)c1ccc(NC(=O)COC(=O)c2cn(-c3ccccc3)nc2-c2ccccc2)cc1	1.42%
CC1CCCN(S(=O)(=O)c2cc(Cl)ccc2Cl)C1 (stereo not drawn)	-15.8%
Cn1c(C(O)c2ccc(Br)cc2)nc(Cl)c1Cl (stereo not drawn)	-8.65%
CN(CC(=O)NC(=O)NCc1ccco1)Cc1nc2ccccc2c(=O)[nH]1	-3.41%
COc1cccc(C2C3=C(N=c4s/c(=C\c5ccccc5O)c(=O)n42)c2ccccc2CC3)c1OC (stereo not drawn)	14%
O=C(NC(=S)Nc1nc(-c2ccccc2)cs1)c1ccco1	0.912%
CN(c1ccc(C(=O)NC2CCCC2)cc1)S(=O)(=O)c1ccccc1	-8.29%
COc1cccc(/C=N/NC(N)=S)c1OCc1cccc(Cl)c1	11.5%
O=C(NNC(=O)c1ccccc1[N+](=O)[O-])c1ccccc1[N+](=O)[O-]	36%
CN1CCN(CC#Cc2ccccc2)CC1CCO (stereo not drawn)	14.4%
Cc1cccc(C(=O)NC(=S)NNC(=O)Cc2ccccc2)c1	3.66%
O=C(NCCc1ccccn1)c1cc(C(=O)C2CCCCC2)c[nH]1	-14.1%

Compound	hERG current change (%, negative = inhibition) at 10uM
CCCCn1c(=O)[nH]c(=O)c2c1nc(-c1cc(Cl)c(OC)c(OC)c1)n2C	16.2%
COc1cc(C(=O)Nc2sc3c(c2C(=O)O)CCC3)cc(OC)c1OC	13.2%
N#Cc1ccc(Cl)cc1NC(=O)COC(=O)c1cccc(S(=O)(=O)N2CCOCC2)c1	-42.1%
COc1cc(NC(=O)c2ccc(CNc3c(N4CCOCC4)c(=O)c3=O)cc2)cc(OC)c1	-1.92%
O=C(CSc1nc(O)c(Cc2ccccc2F)c(=O)[nH]1)N1CCCCCC1	18.2%
CCc1nc2oc3ccccc3c(=O)c2c(=O)n1Cc1ccccc1	18%
CCCCC(=O)NCCNc1nc2c(c(=O)n(C)c(=O)n2C)n1Cc1ccccc1	19.2%
O=C(OCC(=O)N1CCc2ccccc21)c1ccc[n+]([O-])c1	6.99%
Cc1ccc(C2C(C(N)=S)=C(N)OC3=C2C(=O)CC(C)(C)C3)cc1 (stereo not drawn)	1.11%
Cc1cc(-c2nnc(CCC(=O)NCc3cccc(C(F)(F)F)c3)o2)no1	5.69%
CCN(CC)CCN1C(=O)C(=O)/C(=C(/O)c2cnn(-c3ccccc3)c2C)C1c1ccc(C)o1 (stereo not drawn)	-6.63%
COc1ccc(C(=O)Nc2c(Cl)cc(Cl)cc2C(=O)N2CCC(C)CC2)cc1	-17.2%
CC(C)Nc1oc(-c2cccc3ccccc23)nc1C#N	2.18%
CC(C)(O)C#Cc1ccc(C(=O)NC2CCCCC2)s1	14.3%
CCN(CC)S(=O)(=O)c1ccc(OC)c(NC(=S)Nc2ccc(C)c(C)c2)c1	3.23%
COC(=O)c1cc2ccsc2n1CC(=O)Nc1ccc(N(C)C)cc1	2.28%
COc1ccc(NC(=O)OC(CN2CCCCC2)C(F)(F)F)cc1 (stereo not drawn)	2.28%
CC(C(=O)N1CCc2ccccc21)N1CCN(c2cccc(C(F)(F)F)c2)CC1 (stereo not drawn)	-17.8%
c1ccc(-c2cn(CC3CCCCC3)nn2)cc1	-1.74%
C=CCSc1nnc2c(n1)OC(c1ccccn1)N(C(C)=O)c1ccccc1-2 (stereo not drawn)	-17.2%
Cc1ccc(NC(=O)CC2S/C(=N/c3nccs3)N(C)C2=O)c(C)c1 (stereo not drawn)	-15.3%
